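Growth conditions: 96-well plates. Treatment: test compound, 48 hours, 5 concentrations. Analysis: linear interpolation between bracketing concentrations; unreached endpoints set to highest concentration. The concentration for 50% growth inhibition is given as GI50. TGI is the concentration that stops growth completely.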
Tested on: NCI-H322M lung
Assay: NCI anticancer screen, dose series, 48 h

`COc1cc2c3c(n(CCCN4CCOCC4)c(=O)c2cc1OC)-c1nc2c(cc1C3=O)OCO2` showed a GI50 of 5.69 µM and a TGI greater than 100 µM.
